# The other results are listed elsewhere or left out.
# B1: chr11:73401874:73401975:-|3pUTR|ENSG00000054965|unk|FALSE|unique (ssRNA)
# RNA: GGGAGUUCUACAGUCCGACGAUCUGCAGGGUUUGUCCUUUACUUAUCUGCCCCUUUCCUAGAAAACUCCUCGUUUCUGAAAUUAGGCAUUAUAUGGUUCCAGGACCCAGCCUUCAAAAUUCCUGGCAGGCCAGCUUCAACAUUCAACAGAGGAUUGAGCAUCA
# B2: chr1:40073325:40073426:-|3pUTR|ENSG00000131238|msi1|total|mutant (ssRNA)
# RNA: GGGAGUUCUACAGUCCGACGAUCGAGGGAAGCCGCACCCAAAUUAAGUUGCUUAAGAGAGGAAAUGUACAUCUUGUAUAACUCCGGGAGCGAAGAAAAUGCCGGCGCGAAAGUGAAAAGUGAGGCAGCCCGUUCUUCCUAUUCCAACAGAGGAUUGAGCAUCA
# B3: ENSG00000143373:stop:overlap|stop_codon|ENSG00000143373|stop_codon|NA|stop_codon (ssRNA)
# RNA: GGGAGUUCUACAGUCCGACGAUCACUUCCGCACGCAUGGCAUGGCGUUCAUCAGGGCUCGGCAGGGGGCUGUUGGGGACAACUAGUCUCCAAGGCCUGGGACUGACCAGCCCCUUCCUCUUGGAGCCUGGUUUUCCCUACUGCCAACAGAGGAUUGAGCAUCA
# B4: chr15:74955373:74955475:-|3pUTR|ENSG00000178718|unk|total|mutant (ssRNA)
# RNA: GGGAGUUCUACAGUCCGACGAUCGGACAGUUUUCCUUUCCCGUUUUCUUUCCCCUGCUUCAGAGGAGCAUCUCUGAGGGUUCCCGCUCUUUUAACACCCCUUUUCCCCCUGCUGGCCCAGAGGGAGACCCAGGACUGAACUCUCAACAGAGGAUUGAGCAUCA
# B5: chr2:224470697:224470798:-|3pUTR|ENSG00000036257|msi1|FALSE|bound_elsewhere (ssRNA)
# RNA: GGGAGUUCUACAGUCCGACGAUCUGUGACAAACUAAAGUUAAUACAUGAAGCAUUGCAAUAUGGAAUUUUGCACAUUUUUGUUAGCUUUACAUUAUUUGCUGAUACCAACUUUUGGUAGGAAGGAAAACAGGGAAGGUGAUUGCAACAGAGGAUUGAGCAUCA
# B6: ENSG00000155189:stop:overlap|stop_codon|ENSG00000155189|stop_codon|NA|stop_codon (ssRNA)
# RNA: GGGAGUUCUACAGUCCGACGAUCAUGUGAACACCUGGAUAUAUGGAACCCUACUUGGCUGCCUGUGGGUUACUAUUAAAGCAUAGACAAGUAGCUGUCUCCAGACAGUGGGAUGUGCUACAUUGUCUAUUUUUGGCGGCUGCACAACAGAGGAUUGAGCAUCA
# B7: ENSG00000164054:stop:overlap|stop_codon|ENSG00000164054|stop_codon|NA|stop_codon (ssRNA)
# RNA: GGGAGUUCUACAGUCCGACGAUCCAGGAUUUGAGCUGGGACAACAAGGAGGAGACAGUGCGGAACAAGCUCCCAGAGGGGCAUAGGAGGAGGAGUGGCUUCCUGGGGUUGUGGCAGCAGGGAGGUGACUGGGGCCAGCUCAGACAACAGAGGAUUGAGCAUCA
# B8: chr2:205796522:205796663:+|3pUTR|ENSG00000118257|msi1|total|mutant (ssRNA)
# RNA: GGGAGUUCUACAGUCCGACGAUCGUUUUUAUUAAGUGCCUUGAAAAAAUGAAGAAAAAUGUAUUUUCCCUUUAUGUAAAAAUCCGUGAAUAUCUUAUGAAUUAAGGCAUUCCUCUUUCCCUAACCCCGAUGGCUCCAUUCCCACAACAGAGGAUUGAGCAUCA
# B9: ENSG00000124766:be:win_1551|3pUTR|ENSG00000124766|bound_else_gene|NA|bound_elsewhere_windowed (ssRNA)
# RNA: GGGAGUUCUACAGUCCGACGAUCCAGGGCUGGCUUCGCCCGCGUUCUCGUCGUCGGAUCAAGGAGCGCGGCGGCGUUUUGGACCCGCGCUCCCAUCCCCCACCUUCCCGGGCCGGGGACCCACUCUGCCCAGCCGGAGGGACGCAACAGAGGAUUGAGCAUCA
# B10: chr6:73594753:73594854:-|3pUTR|ENSG00000119899|unk|total|mutant (ssRNA)
# RNA: GGGAGUUCUACAGUCCGACGAUCGGUUCACAUACCUGCCUGCCCGUCGGGCAACAUGAAGCCGGACAGUUCUGUUGAUUUUUCCGGGCCAUACUAAAGGGAAUGAGCUGAAACAGACCUCCUGAUACCUUUGCUUAAUUAAACCAACAGAGGAUUGAGCAUCA
# B11: ENSG00000107863:be:win_3601|CDS|ENSG00000107863|bound_else_gene|NA|bound_elsewhere_windowed (ssRNA)
# RNA: GGGAGUUCUACAGUCCGACGAUCAAGGGAAUGGCUGAUAUUGAUAUACAAGAUGAUAAAUGGCGAGAUUUGAAUGUGAUAAGCAGUUUACUAAAAUCCUUCUUCAGAAAACUCCCUGAGCCUCUCUUCACAAAUGAUAAAUAUCAACAGAGGAUUGAGCAUCA
# B12: chr17:63832812:63832858:-|3pUTR|ENSG00000108604|msi1_unk|FALSE|overlapping (ssRNA)
# RNA: GGGAGUUCUACAGUCCGACGAUCCCAGCCCUGGAGCCUGGAGGGAGACCACCCUCUGGGUCCUUGCUGGGGCCGCAGACACGUAGGCUGGGGUGAGGAGUGUCUGCUGUCACCCUCUACUCUCCAGCUUUAGUCUUAUAAAUGCAACAGAGGAUUGAGCAUCA
# B13: chr3:160434497:160434598:+|3pUTR|ENSG00000113810|msi1|total|mutant (ssRNA)
# RNA: GGGAGUUCUACAGUCCGACGAUCUUUAUGACCGGUUUAUCCGGGUACUAAAUGCAUUUCAACUUGACCGUUUCAACUUAUGACCGGUUUACCAGGAUGCCGUCCCACUGUUGAGGAGCAUCUAUUCCGGGGUUAAUUACUUUACAACAGAGGAUUGAGCAUCA
# B14: chr16:20924479:20924582:+|3pUTR|ENSG00000102897|unk|total|mutant (ssRNA)
# RNA: GGGAGUUCUACAGUCCGACGAUCCUACUAUAAAACUAUGUACCACUCUCAGAAUAUUCUCCGGCUUUUUUUUUUUCAAGUUACCGAUUUGCUUAAAGUGAGGUUUUUUGGUGUGUGCUUUUUUGUUGUCUUUUGACCCUUCCACAACAGAGGAUUGAGCAUCA
# Target: MSI1 full-length (mouse, UniProt Q61474 1-362)
# Chain of UniProt Q61474 (Q61474 whole entry): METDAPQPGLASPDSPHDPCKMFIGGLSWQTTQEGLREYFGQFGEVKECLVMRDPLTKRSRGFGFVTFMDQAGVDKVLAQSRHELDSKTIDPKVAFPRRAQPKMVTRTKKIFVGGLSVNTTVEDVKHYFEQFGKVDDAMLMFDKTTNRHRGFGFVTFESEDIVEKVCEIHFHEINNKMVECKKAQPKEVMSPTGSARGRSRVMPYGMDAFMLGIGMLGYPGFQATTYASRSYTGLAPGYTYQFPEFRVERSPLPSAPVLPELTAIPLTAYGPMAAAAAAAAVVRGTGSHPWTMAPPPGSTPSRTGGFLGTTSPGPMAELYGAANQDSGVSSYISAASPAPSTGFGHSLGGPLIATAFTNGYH
# Assay: nsRBNS (natural sequence RNA bind-n-seq); RBNS binding buffer (assumed for nsRBNS): 25 mM Tris pH 7.5, 150 mM KCl, 3 mM MgCl2, 0.01% Triton X-100, 500 ug/ml BSA, 20 U/ml SUPERase-In, 4 C; UNK is unkempt and MSI1 is Musashi-1; names of the RNAs are library labels; protein concentration not given here; high values mean tight binding
row,Binder,binding signal [enrichment R]
1,B1,0.544
2,B2,0.343
3,B3,0.346
4,B4,0.626
5,B5,0.331
6,B6,0.332
7,B7,0.519
8,B8,0.359
9,B9,0.518
10,B10,0.462
11,B11,0.64
12,B12,0.385
13,B13,0.282
14,B14,0.961
